The source of these data is the supplement of paper PMC11417369.

The other results are listed elsewhere or left out.

The test deals with PfAP2-HC AP2 domain (GST-tagged). Briefly: gcPBM binding intensity (ln(normalized median fluorescence intensity)); higher = stronger DNA binding. In a few lines: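 An Agilent 4 × 180k array of primer-extended double-stranded 36-bp intergenic genomic probes, with negative controls, was incubated for 1 h with GST-tagged P. falciparum DNA-binding domains expressed in E. coli. Alexa488 anti-GST antibody detected bound protein, scanned at 488 nm. Binding intensity is the highest Masliner-normalised natural-log median intensity across replicate spots of either probe orientation.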
For “ACAAGAACAGAACGTACACACACATATATATATATA [CACACA_site9143]”, the “gcPBM binding intensity (ln)” value is 10.4.

In the case of “ACCTACACAAGCATTAAACACACAAAAGGGATACTT [CACACA_site8273]”, the “gcPBM binding intensity (ln)” value was determined as 9.92. Take “ACCTAATTTTTATATTGTACATAATATAATATATAT [XGTACX_site1715]”: the “gcPBM binding intensity (ln)” value is 9.82. To “AACTAAATTTATAATTGTACATTAAAATATGTATTA [XGTACX_site479]” belongs 9.51. With “AAATATTACATACACGCACACATTAATATATTTAAA [CACACA_site2603]”, the “gcPBM binding intensity (ln)” value turned out to be 10.1. Turning to “TTTTTTAAAACTTCAAAAAGAGCACTTGAATTTTTT [GTGCAC_negctrl_site455]”, the “gcPBM binding intensity (ln)” value is 9.2. Turning to “ACATATACATTTATATGTACTCATTTATCTTATGTA [XGTACX_site6594]”, the “gcPBM binding intensity (ln)” value came out at 9.83. Regarding “ATTCATTTTAATATGGGTACATAAAAATAAAAAGAA [XGTACX_site2801]”, the “gcPBM binding intensity (ln)” value came out at 9.68. The result for “TAATATGAAAAGTGTACACACGCACAGACAAAAAAA [CACACA_site5594]” reads 10.1. “GCATAAATCAGACACACACACATATATAAATATGTA [CACACA_site7187]”: the “gcPBM binding intensity (ln)” value is 10.6. The result for “AATATTTAATTCAACACACATACATATTTATTAAAA [CACACA_site2342]” reads 9.99. “TACATTTTTATTTTTACACACATATTTATTTATATA [CACACA_site6609]”: the “gcPBM binding intensity (ln)” value turned out to be 9.99. As to “TATGATGATGAATAACGTACAAAAAAATTAATCACC [XGTACX_site6794]”, the “gcPBM binding intensity (ln)” value came to 9.78. In the case of “ATAAATATATGGTTTCATTATATTAAATTCAATTTA [CACACA_negctrl_site213]”, the “gcPBM binding intensity (ln)” value was 9.38. As for “TGTTTATTTTTTTTATGTACTTATTTTTTATTGCAT [XGTACX_site719]”, the “gcPBM binding intensity (ln)” value was found to be 9.9. To “GATTTTCATATTTTTTGTACTTACATTTTTCTATAC [XGTACX_site6002]” belongs 9.99. To “ATAAAATCTTAATCAACAAACAAACAAAAAAAAAAT [CACACA_negctrl_site1161]” belongs 9.67; to “TATGTGATATATTTATCACACATTATATATATATAT [CACACA_site5103]”, 9.66; to “AATAAATAAATAAGTACACACATATATATATATATA [CACACA_site284]”, 9.7. Take “TAATTATCACATTGCACACACATTTCCTTTTACATT [CACACA_site3443]”: the “gcPBM binding intensity (ln)” value is 10.3. For “GGCATACACAGACACACACACACACCCACATATATA [CACACA_site591]”, the “gcPBM binding intensity (ln)” value worked out at 11.2. As for “AAAAGAATGAAACATAATAAATTACATTAAAATAAT [CACACA_negctrl_site897]”, the “gcPBM binding intensity (ln)” value came out at 9.66. Consider “AACTTATTAAGCCCTCCACATTTCTCTACTACAACT [CACACA_negctrl_site1552]”, for which the “gcPBM binding intensity (ln)” value is 10. Turning to “TCTATTTTTCTAATTTGTACATAGCTTTGAGTTAGT [XGTACX_site8977]”, the “gcPBM binding intensity (ln)” value stood at 9.6.

In the case of “AGATAAAATATATACACACACATAAATACGTACAAA [CACACA_site1086]”, the “gcPBM binding intensity (ln)” value was determined as 10.3. In the case of “AACTTCTTTTTTATAACACACAAAATATATATACAA [CACACA_site282]”, the “gcPBM binding intensity (ln)” value amounted to 9.72. The result for “TTTTTTTTTTGTAATTGTACTTTTTTAATACTTCTA [XGTACX_site4195]” reads 9.58; that for “TATACATATATATACACACACATATATATATATATA [CACACA_site4]”, 9.87. With “TATATATATATATTCACACATAAATATATGCACCCA [CACACA_site4263]”, the “gcPBM binding intensity (ln)” value is 9.63. In the case of “ATTTTTGTGACTAAGACATGCATAAGAGTAAAGAAA [TGCATGCA_site619]”, the “gcPBM binding intensity (ln)” value came out at 9.6.

“ACATATATTATATAACGTACATAACACTATTTCCTT [XGTACX_site6938]”: the “gcPBM binding intensity (ln)” value came out at 9.83. As for “AATCATTTATGGAAAGCATGCTAAATTAGAGTATAC [TGCATGCA_site172]”, the “gcPBM binding intensity (ln)” value is 9.65. “TAATATCATTTAGACACACACTCTTACAATCTGTAA [CACACA_site2590]”: the “gcPBM binding intensity (ln)” value was 9.81. “ATCTAAACCTTTTGAGCACACATATATATATATATA [CACACA_site8526]”: the “gcPBM binding intensity (ln)” value was found to be 9.78.

Regarding “ATGGGGAATAATGAATGTACACAAATAAAAAGTTGG [XGTACX_site4015]”, the “gcPBM binding intensity (ln)” value was 9.69.

For the sequence “TAAAAATAAAAATAACGTACATACATACTTATATAT [XGTACX_site3745]”, the “gcPBM binding intensity (ln)” value was 9.53. The result for “TAATTTTTTTAAAACACACAAATATGTAAATATGTA [CACACA_site7769]” reads 9.51; that for “TAAGTCGCCAAAAGGTGTACACATAATGCATTATCA [XGTACX_site8852]”, 9.87. Consider “AGTATAGTTATAAATTGTACATATTATTTATTTTAT [XGTACX_site949]”, for which the “gcPBM binding intensity (ln)” value amounted to 9.69. With “GGGAATTATGAAAAAAGTACAGAACAAAAGTAAAAG [XGTACX_site2861]”, the “gcPBM binding intensity (ln)” value was 9.83. To “ATATAGTAAAATTATACACACATGAATTTTCCCATG [CACACA_site1770]” belongs 9.9; to “TACAAAAATGAAAAAAGTACATATCATTTAATATAA [XGTACX_site8066]”, 9.7; to “TTTTTTTTTTTTTTTTGTACTCATAAAAATATATTA [XGTACX_site3458]”, 8.98.

As for “CATATATATATATATACACACACACCGTCCGTGTTA [CACACA_site8975]”, the “gcPBM binding intensity (ln)” value worked out at 10.1.

For “ATTACATGATATATCACACACACATATAAATATATA [CACACA_site2830]”, the “gcPBM binding intensity (ln)” value came out at 10.5.

On to “CACATATAGTTATATGCACACATCTTACACATATAT [CACACA_site3692]”, for which the “gcPBM binding intensity (ln)” value came out at 10.3. As to “TATCTGTATTTATATACACACATATTCTTTTTACAC [CACACA_site4798]”, the “gcPBM binding intensity (ln)” value came to 10.2.

Regarding “AAAATCACAAAACACACACACACAAAAAAAAAAAAA [CACACA_site1443]”, the “gcPBM binding intensity (ln)” value was found to be 10.5. For the sequence “GTTTGAAGAACTATAAATGTATAAATAAAAGTTTAG [TGCATGCA_negctrl_site222]”, the “gcPBM binding intensity (ln)” value came to 9.54. With “AAAAAAGTAAAAAAAGCACACACGAAAAAAAATAAA [CACACA_site2233]”, the “gcPBM binding intensity (ln)” value amounted to 10.1. On to “ATGGTGCAACATTATGCACACCGTTAAATAACTAAT [CACACA_site9280]”, for which the “gcPBM binding intensity (ln)” value came to 9.61. Turning to “CATGGGCAAATATTCTCACACATAAACATAAACATA [CACACA_site4597]”, the “gcPBM binding intensity (ln)” value was 9.52. With “GAATAAATAAATAAATGTACATATATATTTATTTAT [XGTACX_site243]”, the “gcPBM binding intensity (ln)” value was 9.61. The result for “GTTCGAAGTATAATTTGTACATATAAAATGGTTCCC [XGTACX_site382]” reads 9.56; that for “ATATGTATTTATATATGTTTGAATTTTTTTTTTTTT [CACACA_negctrl_site5]”, 9.45; that for “ATTTGATCAACAAAACGTACACATATTTTCATGTGT [XGTACX_site447]”, 10.1.
